56 compounds from PubChem BioAssay AID463173 (ICCB-Longwood Screening Facility, Harvard Medical School, 2010) can be followed below.

About 1,700 (3.3%) of roughly 52,000 compounds were called active. Rule as the data show it: active = survival mostly below about 52% (no sharp cut-off); inactive = mostly above about 56%. The list shows a part of the results.

The subject of this test is Wild type. Briefly: growth inhibition of S. aureus wild type versus tarO mutant, primary screen, teichoic acid synthesis inhibitors, RN4220, OD600 (AID 463173). The note with it: S. aureus RN4220 wild type/DeltatarO growth, OD600, 18 h, active compounds read low, screened at 18.75 µg/mL (by protocol).
As to `COc1cccc(-c2[nH]c3c(c2-c2c(-n4cccc4)n(C)c(=O)[nH]c2=O)c(=O)[nH]c(=O)n3C)c1`, the survival was inactive: 86%.
For `CN(C)c1ccc(CNC(=O)CCn2c(=O)c3cccn3c3ccc(F)cc32)cc1` the value was inactive: 80%; for `COCCCNc1nc2c(c(=O)n(C)c(=O)n2C)n1Cc1ccccc1`, inactive: 106%.
As to `COCCOC(=O)C1=C(C)N=C2SCCC(=O)N2C1c1ccc(OCc2ccccc2)c(OC)c1` (stereo unspecified), the survival is inactive: 64%.
Turning to `CC(C)COC(=O)Nc1ccc2c(c1)OCO2`, the survival is inactive: 102%.
For `COc1ccccc1N1CCN(c2cc(C)nc3c(-c4ccc(Cl)cc4)c(C)nn23)CC1` the value was inactive: 76%; for `CCc1nnc2c(NCc3cccc(OC)c3)nc3ccccc3n12`, inactive: 87%.
For `COCCNC(=O)CCSc1nc(-c2ccc3c(c2)OCO3)cc(C(F)(F)F)n1` the value was inactive: 60%; for `Cc1ccc(C(=O)N2CCc3cc(CNC(=O)c4ccnn4C)ccc32)cc1`, inactive: 77%.
For `CCN(CC)S(=O)(=O)c1ccc2c(c1)c(=O)c(C(=O)NCc1ccccc1OC)cn2C` the value was inactive: 80%.
On to `CCOC(=O)C1=C(N)OC2=C(C(=O)CC(C)(C)C2)C1c1ccccc1` (stereo unspecified), for which the survival is inactive: 115%.
For `O=C(NCc1ccc2c(c1)CCN2C(=O)c1ccccc1)c1ccc(Br)o1` the value was inactive: 69%; for `Cc1cn(C)c(CC(=O)N2CCN(c3ccc(F)cc3)CC2)c1C(=O)O`, inactive: 133%; for `Cc1ccc(NS(=O)(=O)c2ccc3c(c2)NC(=O)CCS3)cc1F`, inactive: 63%.
For `COC(=O)c1ccccc1NC(=O)Cn1nc(C(F)(F)F)c2c1CCCC2`, the survival was active: -5%.
The figure for `CC1CCCCN1c1nc(-c2ccc(C(C)(C)C)cc2)nc2ccccc12` (stereo unspecified) is active: 1%.
The figure for `COc1cc(NC(=O)Cn2c(=O)nc(-c3ccccc3F)c3cc(Cl)ccc32)cc(OC)c1` is inactive: 124%; for `Cc1ccc(C)c(N2CCN(C(=O)Cn3c(C)c4cnn(-c5ccccc5)c(=O)c4c3C)CC2)c1` it is inactive: 116%.
Take `CCN(C(=O)Cn1cc(C(=O)c2ccc(F)cc2)c(=O)c2ccc(C)nc21)c1cccc(C)c1`: the survival is inactive: 70%.
For `Cc1sc2nc(C)n(NC(N)=O)c(=O)c2c1C` the value was inactive: 96%; for `CCOc1ccc(C(=O)N2CCC(c3ccncc3)CC2)cc1`, inactive: 78%.
The figure for `CCCCOc1ccc(CNC(=O)c2cnc3sc(N4CCC(C)CC4)nn3c2=O)cc1` is inactive: 127%.
For `COc1cccc(-n2c(-c3ccc(C)cc3)cc3c2CC(C)(C)CC3=O)c1` the value was inactive: 21%; for `CCC1CN(C(=O)N2CCC(C(=O)NCc3ccco3)CC2)c2cc(C)ccc2O1` (stereo unspecified), inactive: 87%; for `CC(C)c1nc2ccc(C(=O)NCCCN3CCN(c4ccc(F)cc4)CC3)cc2o1`, inactive: 81%.
With `CC(C)c1ccc2occ(CC(=O)Nc3cccc(C(F)(F)F)c3)c2c1`, the survival is active: 0%.
For `COc1ccc(OC)c(NC(=O)CCc2c(C)nc3c(c(C)nn3C(C)(C)C)c2C)c1` the value was inactive: 90%.
For `Cc1cc(C)c2c(CC(=O)Nc3c(C(=O)c4ccc(F)cc4)oc4ccccc34)coc2c1` the value was inactive: 89%; for `Cc1ccc2c(c1)CC(C)N2S(=O)(=O)c1nnc(NC(=O)CC(C)C)s1` (stereo unspecified), inactive: 82%; for `CCc1ccc(NC(=O)c2ccc3c(O)c(S(=O)(=O)c4ccccc4)c(=O)[nH]c3c2)cc1`, inactive: 84%.
The figure for `COc1ccccc1C(=O)Nc1ccc(OCc2cc(=O)n3cccc(C)c3n2)cc1` is inactive: 78%.
With `Cc1c(NC(=O)c2ccc(Cl)cc2)cc(C(C)C)c(O)c1S(=O)(=O)c1ccccc1`, the survival was inactive: 76%.
For `CCOC(=O)Cn1nc[n+]2[nH]c(C)cc(=O)c12` the value was inactive: 106%; for `COc1ccccc1CNC(=O)CCc1c(C)nn(-c2ccc(N3CCCC3)nn2)c1C`, inactive: 68%.
Take `O=C(NCC1CCN(Cc2ccccc2Cl)CC1)c1cc2ccc3cccnc3c2[nH]1`: the survival is inactive: 45%.
As for `Cc1cc(NC(=O)CSc2nc3c([nH]c4ccccc43)c(=O)n2-c2ccc(Cl)cc2)no1`, the survival is inactive: 77%.
The figure for `COc1ccccc1CNC(=O)CCS(=O)(=O)c1ccc2c(c1)CC(C)N2C(=O)C1CC1` (stereo unspecified) is active: 0%; for `Cc1cc(=O)n(Cc2ccccc2Cl)c2c1c(C)nn2-c1ccccc1` it is inactive: 73%; for `O=c1oc2ccc(F)cc2cc1-c1nc(-c2cccs2)no1` it is inactive: 94%.
Turning to `Cc1ccc(CSc2nc3ccsc3c(=O)n2CCC(C)C)cc1`, the survival is active: -6%.
The figure for `O=C(CC1Oc2ccccc2NC1=O)NCc1ccc(F)cc1` (stereo unspecified) is inactive: 128%.
For `COc1ccc(CC(=O)Nc2nnc3n2CCS3)cc1` the value was inactive: 127%.
For `CCn1c2c(c(=O)n3ncc(C(=O)Nc4ccc(F)cc4Cl)c13)CN(Cc1ccc(OC)cc1)CC2` the value was active: 14%; for `CCN1CCN(C(=O)c2ccc3c(c2)N(Cc2ccc(F)cc2)C(=O)c2ccccc2S3(=O)=O)CC1`, inactive: 126%; for `Cc1cccc(OCc2nnc(-c3ccccc3)o2)c1`, inactive: 73%.
As for `COc1cccc(NC(=O)c2sc3nc(C)c(C(=O)Nc4ccc(C)cc4C)c(-c4cccs4)c3c2N)c1`, the survival was inactive: 145%.
On to `Cc1ccc(-c2nc(-c3cc4cccc(OCc5cccc(F)c5)c4oc3=O)no2)cc1`, for which the survival was inactive: 60%.
The figure for `CCOc1ccc(-n2c(Cc3ccccc3)nnc2SCc2nc(-c3cccs3)no2)cc1` is inactive: 75%; for `Cn1c(=N)n(CC(=O)c2ccc(-c3ccccc3)cc2)c2ccccc21` it is inactive: 120%; for `Cc1ccn2c(Nc3c(C)cccc3C)c(-c3ccc(Cl)s3)nc2c1` it is inactive: 32%.
Consider `Cc1cc(C)cc(NC(=O)C2CCN(S(=O)(=O)c3c(C)noc3/C=C/c3ccco3)CC2)c1`, for which the survival was inactive: 94%.
For `CCCCN(CCCC)C1=C(C(=O)c2ccccc2)N(CC)S(=O)(=O)c2ccccc21` the value was inactive: 67%.
For `COC(=O)CN1C(=O)C(C)(C)c2cc(S(=O)(=O)NCc3ccc(Cl)cc3)ccc21` the value was inactive: 56%.
The figure for `Cc1ccc2scc(N3CCN(c4cccc(C(F)(F)F)c4)CC3)c(=O)c2c1` is inactive: 73%.
As for `CC1SC(c2ccccc2)N(Cc2ccccc2)C1=O` (stereo unspecified), the survival is inactive: 122%.
The figure for `Cc1cccc(CN2CCC(C(=O)N3CCC(C)CC3)CC2)c1` is inactive: 102%.
